The values that follow come from PubChem BioAssay (NCI).

The subject of the experiment is NCI-H322M lung. Briefly: NCI tumour cell line growth inhibition, 48 h.

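Five compound concentrations were applied to cells in 96-well plates for 48 hours; endpoints were derived by simple linear interpolation of the resulting dose-response curve. At the GI50, growth is halved. TGI is the concentration that stops growth completely.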

Regarding `COc1cc(OC)cc(C(=O)Nc2cccc(C#Cc3cccc4[nH]nc(N)c34)c2)c1`, the GI50 is 3.39 µM and the TGI turned out to be 24.3 µM.

Consider `COc1cc2nc(Cl)nc(Nc3cccc(C4=Nc5c(N)nc(N)nc5NC(c5ccc(Cl)cc5)C4)c3)c2cc1OC` (centres undefined), for which the GI50 is 2.93 µM and the TGI amounted to 9.91 µM.
